From the supplement of paper PMC8728848
Some of the results follow.

Experiments:
Assay in all cases: glycan array binding signal (z-score within array); higher = stronger binding
Details in all cases: glycan notation: IUPAC condensed, linker removed
[1] = target: Gal(a1-3)Gal(b1-4)GlcNAc(b1-2)Man
Summary of the method: (§1)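 Arrays were curated from the Consortium for Functional Glycomics database, 3228 in total, and kept only where the protein sequence was available. Binding is expressed as a within-array Z-score. This score was averaged across arrays of the same protein sequence at different concentrations or buffers and across linkers, and negative values can be read as non-binding.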

[2] = target: Gal(a1-3)Gal(b1-4)GlcNAc(b1-2)Man(a1-3)[Gal(a1-3)Gal(b1-4)GlcNAc(b1-2)Man(a1-6)]Man(b1-4)GlcNAc(b1-4)GlcNAc
Summary of the method: as §1

[3] = target: Gal(a1-3)Gal(b1-4)GlcNAc(b1-3)GalNAc
Summary of the method: as §1

[4] = target: Gal(a1-3)Gal(b1-4)GlcNAc(b1-6)GalNAc
Summary of the method: as §1

[5] = target: Gal(a1-3)Gal(b1-4)[Fuc(a1-3)]GlcNAc
Summary of the method: as §1

[6] = target: Gal(a1-3)Gal(b1-4)[Fuc(a1-3)]GlcNAc(b1-2)Man(a1-3)[Gal(a1-3)Gal(b1-4)[Fuc(a1-3)]GlcNAc(b1-2)Man(a1-6)]Man(b1-4)GlcNAc(b1-4)GlcNAc
Summary of the method: as §1

Gal(a1-3)GalNAc = target: Gal(a1-3)GalNAc
Summary of the method: as §1

[7] = target: Gal(a1-3)[Gal(a1-4)]Gal(b1-4)GlcNAc
Summary of the method: as §1

[8] = target: Gal(a1-4)Gal(b1-3)GlcNAc(b1-2)Man(a1-3)[Gal(a1-4)Gal(b1-3)GlcNAc(b1-2)Man(a1-6)]Man(b1-4)GlcNAc(b1-4)GlcNAc
Summary of the method: as §1

Gal(a1-4)Gal(b1-4)Glc = target: Gal(a1-4)Gal(b1-4)Glc
Summary of the method: as §1

Gal(a1-4)Gal(b1-4)GlcNAc = target: Gal(a1-4)Gal(b1-4)GlcNAc
Summary of the method: as §1

[9] = target: Gal(a1-4)Gal(b1-4)GlcNAc(b1-2)Man(a1-3)[Gal(a1-4)Gal(b1-4)GlcNAc(b1-2)Man(a1-6)]Man(b1-4)GlcNAc(b1-4)GlcNAc
Summary of the method: as §1

[10] = target: Gal(a1-4)Gal(b1-4)GlcNAc(b1-3)Gal(b1-4)Glc
Summary of the method: as §1

Gal(a1-4)GlcNAc = target: Gal(a1-4)GlcNAc
Summary of the method: as §1

Gal(a1-6)Glc = target: Gal(a1-6)Glc
Summary of the method: as §1

Gal(b1-2)Gal = target: Gal(b1-2)Gal
Summary of the method: as §1

Gal(b1-3)Gal = target: Gal(b1-3)Gal
Summary of the method: as §1

Gal(b1-3)Gal(b1-4)GlcNAc = target: Gal(b1-3)Gal(b1-4)GlcNAc
Summary of the method: as §1

Gal(b1-3)GalNAc = target: Gal(b1-3)GalNAc
Summary of the method: as §1

[11] = target: Gal(b1-3)GalNAc(a1-3)[Fuc(a1-2)]Gal(b1-4)Glc
Summary of the method: as §1

[12] = target: Gal(b1-3)GalNAc(a1-3)[Fuc(a1-2)]Gal(b1-4)GlcNAc
Summary of the method: as §1

Gal(b1-3)GalNAc(b1-3)Gal = target: Gal(b1-3)GalNAc(b1-3)Gal
Summary of the method: as §1

[13] = target: Gal(b1-3)GalNAc(b1-3)Gal(a1-4)Gal(b1-4)Glc
Summary of the method: as §1

[14] = target: Gal(b1-3)GalNAc(b1-4)Gal(b1-4)Glc
Summary of the method: as §1

[15] = target: Gal(b1-3)GalNAc(b1-4)[Neu5Ac(a2-3)]Gal(b1-4)Glc
Summary of the method: as §1

Gal(b1-3)GlcNAc = target: Gal(b1-3)GlcNAc
Summary of the method: as §1

[16] = target: Gal(b1-3)GlcNAc(a1-3)Gal(b1-4)GlcNAc
Summary of the method: as §1

[17] = target: Gal(b1-3)GlcNAc(a1-6)Gal(b1-4)GlcNAc
Summary of the method: as §1

Gal(b1-3)GlcNAc(b1-2)Man = target: Gal(b1-3)GlcNAc(b1-2)Man
Summary of the method: as §1

[18] = target: Gal(b1-3)GlcNAc(b1-2)Man(a1-3)[Gal(b1-3)GlcNAc(b1-2)Man(a1-6)]Man(b1-4)GlcNAc(b1-4)GlcNAc
Summary of the method: as §1

[19] = target: Gal(b1-3)GlcNAc(b1-2)Man(a1-3)[Gal(b1-3)GlcNAc(b1-2)Man(a1-6)]Man(b1-4)GlcNAc(b1-4)[Fuc(a1-6)]GlcNAc
Summary of the method: as §1

[20] = target: Gal(b1-3)GlcNAc(b1-2)Man(a1-3)[GlcNAc(b1-4)][Gal(b1-3)GlcNAc(b1-2)Man(a1-6)]Man(b1-4)GlcNAc(b1-4)GlcNAc
Summary of the method: as §1

[21] = target: Gal(b1-3)GlcNAc(b1-2)[Gal(b1-3)GlcNAc(b1-6)]Man(a1-6)[Gal(b1-3)GlcNAc(b1-2)Man(a1-3)]Man(b1-4)GlcNAc(b1-4)GlcNAc
Summary of the method: as §1

[22] = target: Gal(b1-3)GlcNAc(b1-3)Gal(b1-3)GlcNAc
Summary of the method: as §1

[23] = target: Gal(b1-3)GlcNAc(b1-3)Gal(b1-4)Glc
Summary of the method: as §1

[24] = target: Gal(b1-3)GlcNAc(b1-3)Gal(b1-4)GlcNAc
Summary of the method: as §1

[25] = target: Gal(b1-3)GlcNAc(b1-3)Gal(b1-4)GlcNAc(b1-2)Man(a1-3)[Gal(b1-3)GlcNAc(b1-3)Gal(b1-4)GlcNAc(b1-2)Man(a1-6)]Man(b1-4)GlcNAc(b1-4)GlcNAc
Summary of the method: as §1

[26] = target: Gal(b1-3)GlcNAc(b1-3)Gal(b1-4)GlcNAc(b1-2)[Gal(b1-3)GlcNAc(b1-3)Gal(b1-4)GlcNAc(b1-6)]Man(a1-6)[Gal(b1-3)GlcNAc(b1-3)Gal(b1-4)GlcNAc(b1-2)Man(a1-3)]Man(b1-4)GlcNAc(b1-4)[Fuc(a1-6)]GlcNAc
Summary of the method: as §1

[27] = target: Gal(b1-3)GlcNAc(b1-3)Gal(b1-4)GlcNAc(b1-3)Gal(b1-4)GlcNAc(b1-2)[Gal(b1-3)GlcNAc(b1-3)Gal(b1-4)GlcNAc(b1-3)Gal(b1-4)GlcNAc(b1-6)]Man(a1-6)[Gal(b1-3)GlcNAc(b1-3)Gal(b1-4)GlcNAc(b1-3)Gal(b1-4)GlcNAc(b1-2)Man(a1-3)]Man(b1-4)GlcNAc(b1-4)[Fuc(a1-6)]GlcNAc
Summary of the method: as §1

[28] = target: Gal(b1-3)GlcNAc(b1-3)Gal(b1-4)GlcNAc(b1-6)[Gal(b1-3)GlcNAc(b1-3)]Gal(b1-4)Glc
Summary of the method: as §1

[29] = target: Gal(b1-3)GlcNAc(b1-3)Gal(b1-4)[Fuc(a1-3)]GlcNAc
Summary of the method: as §1

[30] = target: Gal(b1-3)GlcNAc(b1-3)Gal(b1-4)[Fuc(a1-3)]GlcNAc(b1-6)[Gal(b1-3)GlcNAc(b1-3)]Gal(b1-4)Glc
Summary of the method: as §1

[31] = target: Gal(b1-3)GlcNAc(b1-3)GalNAc
Summary of the method: as §1

[32] = target: Gal(b1-3)GlcNAc(b1-6)Gal(b1-4)GlcNAc
Summary of the method: as §1

[33] = target: Gal(b1-3)GlcNAc(b1-6)GalNAc
Summary of the method: as §1

B1: Cohesin-hDC-ASGPR (Homo sapiens) (protein)
chain: LDDLDAVRIKVDTVNAKPGDTVRIPVRFSGIPSKGIANCDFVYSYDPNVLEIIEIEPGDIIVDPNPDKSFDTAVYPDRKIIVFLFAEDSGTGAYAITKDGVFATIVAKVKEGAPNGLSVIKFVEVGGFANNDLVEQKTQFFDGGANVGDTTEPATPTTPVTTPTTTDDLDAASQNSKFQRDLVTLRTDFSNFTSNTVAEIQALTSQGSSLEETIASLKAEVEGFKQERQAGVSELQEHTTQKAHLGHCPHCPSVCVPVHSEMLLRVQQLVQDLKKLTCQVATLNNNASTEGTCCPVNWVEHQDSCYWFSHSGMSWAEAEKYCQLKNAHLVVINSREEQNFVQKYLGSAYTWMGLSDPEGAWKWVDGTDYATGFQNWKPGQPDDWQGHGLGGGEDCAHFHPDGRWNDDVCQRPYHWVCEAGLGQTSQESHHHHHH
- glycan array binding signal (z-score) [1]: -0.386
- glycan array binding signal (z-score) [2]: -0.411
- glycan array binding signal (z-score) [3]: -0.475
- glycan array binding signal (z-score) [4]: 2.57
- glycan array binding signal (z-score) [5]: -0.416
- glycan array binding signal (z-score) [6]: -0.296
- glycan array binding signal (z-score) (Gal(a1-3)GalNAc): -0.07
- glycan array binding signal (z-score) [7]: -0.512
- glycan array binding signal (z-score) [8]: -0.444
- glycan array binding signal (z-score) (Gal(a1-4)Gal(b1-4)Glc): -0.467
- glycan array binding signal (z-score) (Gal(a1-4)Gal(b1-4)GlcNAc): -0.452
- glycan array binding signal (z-score) [9]: -0.424
- glycan array binding signal (z-score) [10]: -0.504
- glycan array binding signal (z-score) (Gal(a1-4)GlcNAc): -0.288
- glycan array binding signal (z-score) (Gal(a1-6)Glc): -0.403
- glycan array binding signal (z-score) (Gal(b1-2)Gal): 0.407
- glycan array binding signal (z-score) (Gal(b1-3)Gal): -0.441
- glycan array binding signal (z-score) (Gal(b1-3)Gal(b1-4)GlcNAc): -0.492
- glycan array binding signal (z-score) (Gal(b1-3)GalNAc): -0.461
- glycan array binding signal (z-score) [11]: -0.465
- glycan array binding signal (z-score) [12]: -0.438
- glycan array binding signal (z-score) (Gal(b1-3)GalNAc(b1-3)Gal): 0.028
- glycan array binding signal (z-score) [13]: 1.98
- glycan array binding signal (z-score) [14]: -0.272
- glycan array binding signal (z-score) [15]: 1.85
- glycan array binding signal (z-score) (Gal(b1-3)GlcNAc): -0.345
- glycan array binding signal (z-score) [16]: -0.482
- glycan array binding signal (z-score) [17]: -0.474
- glycan array binding signal (z-score) (Gal(b1-3)GlcNAc(b1-2)Man): -0.291
- glycan array binding signal (z-score) [18]: -0.47
- glycan array binding signal (z-score) [19]: -0.484
- glycan array binding signal (z-score) [20]: -0.372
- glycan array binding signal (z-score) [21]: -0.425
- glycan array binding signal (z-score) [22]: -0.451
- glycan array binding signal (z-score) [23]: -0.421
- glycan array binding signal (z-score) [24]: -0.46
- glycan array binding signal (z-score) [25]: 0.26
- glycan array binding signal (z-score) [26]: 0.077
- glycan array binding signal (z-score) [27]: 0.209
- glycan array binding signal (z-score) [28]: -0.428
- glycan array binding signal (z-score) [29]: -0.431
- glycan array binding signal (z-score) [30]: -0.487
- glycan array binding signal (z-score) [31]: -0.452
- glycan array binding signal (z-score) [32]: -0.444
- glycan array binding signal (z-score) [33]: 2.51
